Measured values published in PubChem BioAssay AID1346428 (National Center for Advancing Translational Sciences (NCATS), 2018).
Out of some 48,000 compounds screened, about 1,200 (2.5%) were called active. Roughly 2% stayed inconclusive and do not appear here.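 Rule for the calls: active = activation of at least 60% and not above a set upper limit (about 1 call in 100 departs from these limits); inconclusive = activation of 40% to 60%, or above that upper limit; inactive = activation under 40%.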 Some of the results follow.

Biological target: Probable G-protein coupled receptor 32 (Homo sapiens) (UniProt O75388)
Sequence of UniProt O75388 (O75388 whole entry, looked up): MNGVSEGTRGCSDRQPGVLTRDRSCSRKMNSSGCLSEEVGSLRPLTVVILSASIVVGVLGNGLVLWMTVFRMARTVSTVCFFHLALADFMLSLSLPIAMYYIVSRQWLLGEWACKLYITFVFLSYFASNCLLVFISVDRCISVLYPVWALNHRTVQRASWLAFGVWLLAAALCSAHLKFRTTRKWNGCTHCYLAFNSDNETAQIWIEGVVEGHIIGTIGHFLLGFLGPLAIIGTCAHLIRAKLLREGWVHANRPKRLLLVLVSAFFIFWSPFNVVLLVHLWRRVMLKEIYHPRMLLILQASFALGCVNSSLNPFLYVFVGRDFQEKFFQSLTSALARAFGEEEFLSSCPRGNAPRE
Assay: qHTS for Agonists of Human Resolvin D1 Receptor DRV1; note: 0% is about no effect
Settings: CHO-K1 GPR32 beta-arrestin PathHunter luminescence, 90 min; at 76.9 µM; active compounds read high; zero percent set by DMSO-only wells
Outline: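 Luminescent readout of beta-Gal complementation quantifies ligand-induced beta-arrestin association with GPR32 in CHO-K1 cells; 90 min compound incubation at 37 °C, detection 1 h at room temperature.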

Compound | activation
CCc1nn(CC(=O)Nc2ccc(NC(C)=O)cc2)c(=O)c2cc3sccc3n12 | inactive: -1.73%
COc1ccc(CNC(=O)CSc2c3c(nc4ccc(Cl)cc24)CCCC3)cc1 | inactive: -15.7%
O=C(Cn1cnc2onc(-c3ccc(Cl)cc3)c2c1=O)Nc1ccc(F)cc1 | inactive: -10.4%
CCOc1ccc(NC(=O)N2CCN3CCCCC3C2)cc1 (stereo not given) | inactive: -14.4%
CCOC(=O)c1ccc(N2C(=O)c3n[nH]c(-c4ccco4)c3C2c2cccc(O)c2)cc1 (stereo not given) | inactive: 38.2%
Cc1ccc(S(=O)(=O)N(CCc2ccccc2)CC(=O)Nc2ccc(Br)cc2)cc1 | inactive: 0.0174%
CN(C)CCN(Cc1ccsc1)c1ccccn1 | inactive: 12.6%
COCCNC(=O)CN1C(=O)c2cccnc2Oc2ccc(Cl)cc21 | inactive: -1.36%
CCc1cccc(CC)c1NC(=O)CCS(=O)(=O)c1ccc2c(c1)CCN2C(C)=O | inactive: -4.31%
Cc1cccc(NC(=O)c2oc3ccccc3c2NC(=O)Cc2coc3ccc(C(C)C)cc23)c1 | inactive: -1.23%
O=[N+]([O-])c1cc(-c2nc(-c3ccccc3)no2)ccc1N1CCOCC1 | inactive: 16.9%
COc1ccc(-c2nc(CCNC(=O)c3ccc(Br)o3)cs2)cc1 | inactive: 6.04%
CCOc1ccccc1NC(=O)C1=C(C)Nc2ncnn2C1c1ccc(C)o1 (stereo not given) | inactive: 5.43%
CCc1ccccc1NC(=O)Cn1c(SCc2ccc(F)cc2)nc2ccncc21 | inactive: -3.24%
COc1ccc(-c2nc(CNS(=O)(=O)c3cccc(F)c3)cs2)cc1 | inactive: -22.8%
O=C(CCCn1c(=O)c2cccn2c2ccccc21)NCc1ccccc1Br | inactive: -23.7%
CC1CCN(C(=O)C2COc3ccccc3C2)CC1 (stereo not given) | inactive: -21%
Cc1ccc(Nc2sc(C(=O)c3ccccc3)c(N)c2C(N)=O)cc1 | inactive: -18.5%
Cc1ccc(NC(=O)c2ccc(=O)n(Cc3ccccc3C)c2)c(C)c1 | inactive: 22.4%
CCOC(=O)c1c(S(=O)(=O)N2CCCC(C(=O)NCc3ccccc3OC)C2)c(C)n(C)c1C (stereo not given) | inactive: -6.97%
CCc1nc(SC)ncc1C(=O)N1CCN(c2cc(C)ccc2C)CC1 | inactive: 17.5%
Cc1ccc(CN2CCCn3nc(C(=O)NCCc4cccc(C)c4)cc3C2=O)cc1 | inactive: 5.38%

Compound | activation
NC(=O)C1CCN(S(=O)(=O)c2ccc(N3CCCCS3(=O)=O)cc2)CC1 | inactive: -11%
[Li+] | inactive: 5.53%
CCc1ccccc1NC(=O)CSc1nc2c(oc3ccccc32)c(=O)n1C | inactive: 16.7%
Cc1ccc(-c2nc(N3CCCC(C)C3)c3ccccc3n2)cc1 (stereo not given) | inactive: 31.7%
COc1ccc(CCNCc2ccc3c(c2)n(C)c(=O)n3C)cc1OC | inactive: 3.45%
Cc1ccc(CNC(=O)c2ccc3c(O)c(S(=O)(=O)c4ccc(Cl)cc4)c(=O)[nH]c3c2)cc1 | inactive: -10.7%
Cc1nn(C)c2c1c(-c1ccccc1)cc(=O)n2CC(=O)NC(C)C | inactive: -14.4%
COc1cccc(CNC(=O)C2CCCN(c3nc4ccccc4n4cccc34)C2)c1 (stereo not given) | inactive: -15.4%
Cc1ccc(CN2CCCn3nc(C(=O)NCCc4ccccc4Cl)cc3C2=O)cc1 | inactive: 37.1%
CCCn1c2ccc(F)cc2c2nnc(SCCN(CC)CC)nc21 | inactive: -12%
Cc1c(C(=O)Nc2ccccc2Cl)oc2ccc(S(=O)(=O)N3CCCCC3)cc12 | inactive: -4.75%
Cc1ccc(C(=O)Nc2cccc(C(=O)OCc3cc(=O)n4nc(C5CC5)sc4n3)c2)cc1 | inactive: -2.3%
COc1ccc(C)cc1NC(=O)c1cc(S(=O)(=O)N2CCN(c3cccc(C)c3C)CC2)ccc1F | inactive: 5.48%
Clc1ccc(Nc2c(-c3ccccc3Cl)nc3ccc(Cl)cn23)cc1 | inactive: 4.31%
COc1ccc(-n2nc(C(=O)NCc3ccc(F)cc3Cl)c3c4ccccc4n(C)c3c2=O)cc1Cl | inactive: 16.8%
CCOc1ccc(N2CC(NC(=O)C3CC3)CC2=O)cc1 (stereo not given) | inactive: -4.68%
CCCOc1ccc(C2CC(=O)Nc3c2c(=O)n(C)c(=O)n3C)cc1OC (stereo not given) | inactive: -28.8%
COCC(C)Nc1ncnc2c1cnn2-c1ccc(C)c(C)c1 (stereo not given) | inactive: 7.14%
CCCCN(CC)CCCNC(=O)Cn1ncc2c3ccccc3n(Cc3ccc(F)cc3)c2c1=O | inactive: -11.5%
CC(NC(=O)c1ccc2c(c1)sc1nc(-c3ccccc3)cn12)C12CC3CC(CC(C3)C1)C2 (stereo not given) | inactive: -4.92%
Cc1cccc(C(=O)Oc2c(Sc3ccccc3)c(C)nn2C(C)(C)C)c1 | inactive: -21.1%
Cn1c(=O)c(=O)n(C)c2cc(S(=O)(=O)N3CCN(c4ccccc4)CC3)ccc21 | inactive: 0.571%

Compound | activation
COc1ccc(-n2cc(C(=O)OCc3ccc(Cl)cc3)c3ccccc3c2=O)cc1 | inactive: -5.04%
CCOc1ccc(Nc2sc(C(=O)c3cccc(OC)c3)c(N)c2S(=O)(=O)c2ccccc2)cc1 | inactive: -4.95%
COc1ccc(NC(=O)C2CCN(S(=O)(=O)c3ccc4c(c3)CCCC(=O)N4)CC2)c(OC)c1 | inactive: -5.99%
Cc1c(C(=O)OC2CCCCCC2)[nH]c2c1C(=O)CC(c1ccc(N(C)C)cc1)C2 (stereo not given) | inactive: -0.597%
COc1cc(OC)cc(C(=O)Nc2cc(-c3nc4cccnc4s3)ccc2C)c1 | inactive: -0.0257%
CCC(C(=O)Nc1ccc(C(=O)OC)cc1)n1nc(-c2ccc(C)c(C)c2)ccc1=O (stereo not given) | inactive: -20.5%
CCCn1c(=O)c2[nH]c(-c3ccc(OCC(=O)NCCN)cc3)nc2n(CCC)c1=O | inactive: -19.4%
Cc1ccc(NC(=O)CSc2ccc(-c3ccccn3)nn2)cc1F | inactive: 12.7%
COc1ccc(S(=O)(=O)N(CC(=O)NCCSCc2ccccc2)c2ccc(C)cc2)cc1 | inactive: 21.9%
CCOc1ccc(CNC(=O)Cn2ccc3cc(S(=O)(=O)N4CCCCC4)ccc32)cc1 | active: 77.4%
Cn1c(=O)c(=O)n(C)c2cc(S(=O)(=O)N3CCCC3C(=O)Nc3ccc(F)cc3)ccc21 (stereo not given) | inactive: -3.59%
Cc1ccc(Cn2c(=O)n(-c3cc(C)cc(C)c3)c(=O)c3oc4ccccc4c32)cc1 | inactive: -24.3%
O=C(c1ccccc1Br)N1CCC(c2nc3ccccc3o2)CC1 | inactive: -7.27%
N#Cc1c(C(F)(F)F)cc(-c2cccs2)nc1SCC(=O)Nc1cccc(C(F)(F)F)c1 | inactive: 1.79%
Cc1ccc(S(=O)(=O)/C=C/C#N)cc1 | inactive: -35.1%
COc1ccc(S(=O)(=O)N(Cc2nc(-c3ccc(Cl)cc3)no2)C2CCCCC2)cc1 | inactive: -20.9%
Cc1ccc(S(=O)(=O)NCc2ccc(C(=O)NCCc3cccc(C)c3)cc2)cc1 | inactive: 28.8%
Cc1oc(C)c2c(=O)cc(-c3ccc4c(c3)OCO4)cc(OC(=O)c3cccc(Cl)c3)c12 | inactive: -11.4%
O=S(=O)(c1ccc(-n2cnnn2)cc1)N1CCN(c2cccc(C(F)(F)F)c2)CC1 | inactive: 20%
COc1ccccc1NC(=O)C(Cc1ccccc1)NS(=O)(=O)c1cccc2nsnc12 (stereo not given) | inactive: -12.8%
Cc1ccsc1CN(C(=O)COc1cccc(C)c1C)C1CCS(=O)(=O)C1 (stereo not given) | inactive: -22.5%
COc1cc(Cl)c(C)cc1NC(=O)c1sc2nc(C)cc(C)c2c1N | inactive: -2.85%

Compound | activation
COc1cc(C(=O)N(Cc2cccnc2)c2nc3cc(C)c(C)cc3s2)cc(OC)c1OC | inactive: -19.6%
CCOC(=O)COc1ccc(F)cc1C(=O)c1ccn2nc(-c3ccc(C)cc3)cc2n1 | inactive: -8.14%
CN1C(=O)C(C)(C)c2cc(S(=O)(=O)N3CCCC3C(=O)Nc3ccc(F)cc3)ccc21 (stereo not given) | inactive: -2.16%
COc1ccc(OC)c(NC(=O)CSc2nc3ccccc3c(=O)n2CCC(=O)NC2CCCCC2)c1 | inactive: 7.75%
O=C(Cn1c(SCC(=O)Nc2ccc(F)cc2)nc2ccccc21)NCc1ccccc1Cl | active: 70.1%
CCCCOC(=O)c1cccc(NC(=O)/C=C/c2ccccc2Cl)c1 | inactive: -27.5%
CCCCOc1ccccc1C(=O)N(Cc1cccc(F)c1)C1CCS(=O)(=O)C1 (stereo not given) | inactive: -10.3%
Cc1ccc(NC(=O)c2ccc(CNS(=O)(=O)c3ccc4c(c3)C(C)(C)C(=O)N4C)cc2)cc1F | inactive: 5.88%
O=C(NCC(c1cccnc1)N1CCc2ccccc21)c1ccc(F)cc1 (stereo not given) | inactive: -29.3%
CCOc1ccc(NC(=O)N(C)CCc2c(C)nn(C)c2C)cc1 | inactive: -9.89%
CCOC(=O)C1=C(CN(C)Cc2ccccc2)NC(=O)NC1c1ccc(OC)cc1 (stereo not given) | inactive: -8.86%
CCOc1ccc(CCNC(=O)CSc2nnnn2-c2ccc(C)cc2C)cc1OCC | inactive: 20.2%
COc1ccc(OC(C)C(=O)NCc2nc(-c3cccc(C)c3)no2)cc1 (stereo not given) | inactive: -4.69%
COc1cc(OC)c(NC(=O)C(Cc2ccccc2)NS(=O)(=O)c2cccc3nsnc23)cc1Cl (stereo not given) | inactive: -17.8%
CN(C)c1ccc(NC(=O)CSc2nc3ccsc3c(=O)n2CCCCCC(=O)O)cc1 | inactive: -12.8%
Cc1c(C(=O)N(Cc2ccco2)Cc2ccccc2Cl)oc2ccc(F)cc12 | inactive: 5.73%
COc1ccc(CC(=O)Nc2cc(-c3cn4cccnc4n3)ccc2OC)cc1 | inactive: -12.4%
CCCCC(=O)NC1(C(F)(F)F)C(=O)Nc2c1c(=O)[nH]c(=O)n2-c1ccc(C)c(C)c1 (stereo not given) | inactive: -2.88%
O=C(Nc1ccc2nc(SCCOc3ccccc3Cl)sc2c1)c1ccc2c(c1)OCO2 | inactive: -1.12%
